# Measurements taken from PubChem BioAssay AID1468 (National Center for Advancing Translational Sciences (NCATS), 2008).
# In all, about 280,000 compounds went through this assay and about 1,100 (0.39%) were called active. Inconclusive means that the source gave no clear call. Such entries were picked first, then a sample of the others. Calls come from the whole dose curve; as a rule, active = well fitted inhibition curve with a large enough effect; inconclusive = small, poorly fitted or top-dose-only effect, or effect the other way; inactive = flat fitted curve, though single readings scatter. Potencies of inconclusive entries are left out as doubtful fits.
# Biological target: Microtubule-associated protein tau (Homo sapiens) (UniProt P10636)
# Assay: qHTS for Inhibitors of Tau Fibril Formation, Fluorescence Polarization; note: nearly all actives have a fitted effect of over 55% in size
# Settings: K18 P301L tau heparin fibrillization, Alexa594 FP, 6 h; series mostly up to 57.7 µM; activity, negative = inhibition: at the top concentration
# Procedure, shortened: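 Steps: dispense K18 P301L tau (15 uM plus 0.24 uM Alexa 594 tracer, final) in pH 7 sodium acetate; add compound; add heparin (20 uM final); incubate 6 hr, 37 C; add ThT (30 uM final); after 1 hr ambient, read FP.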
# % is set by controls: 0 for no effect and ±100 for the full control effect; potency is the fitted concentration of half-maximal effect; tags give direction and shape of the fitted curve.
# Chain of UniProt P10636 (P10636 whole entry, looked up): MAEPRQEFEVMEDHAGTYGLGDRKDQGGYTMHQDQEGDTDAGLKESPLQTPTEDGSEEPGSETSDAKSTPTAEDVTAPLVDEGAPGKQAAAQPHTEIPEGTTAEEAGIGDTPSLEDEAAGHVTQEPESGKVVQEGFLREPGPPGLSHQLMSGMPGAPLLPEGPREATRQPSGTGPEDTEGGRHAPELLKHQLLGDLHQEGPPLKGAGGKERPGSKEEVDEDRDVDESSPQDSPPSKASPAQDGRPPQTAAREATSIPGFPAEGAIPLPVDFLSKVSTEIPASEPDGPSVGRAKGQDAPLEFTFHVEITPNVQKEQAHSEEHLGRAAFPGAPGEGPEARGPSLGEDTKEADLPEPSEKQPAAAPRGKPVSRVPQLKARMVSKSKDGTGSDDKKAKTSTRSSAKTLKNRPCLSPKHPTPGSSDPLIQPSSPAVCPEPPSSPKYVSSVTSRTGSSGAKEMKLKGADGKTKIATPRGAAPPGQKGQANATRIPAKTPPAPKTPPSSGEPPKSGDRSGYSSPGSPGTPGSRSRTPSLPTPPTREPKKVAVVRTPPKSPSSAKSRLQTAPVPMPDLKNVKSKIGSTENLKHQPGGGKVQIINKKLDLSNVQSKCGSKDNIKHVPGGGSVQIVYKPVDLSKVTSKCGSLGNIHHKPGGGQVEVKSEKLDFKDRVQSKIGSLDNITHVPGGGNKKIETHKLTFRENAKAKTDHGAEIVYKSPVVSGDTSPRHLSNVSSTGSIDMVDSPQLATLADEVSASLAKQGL
Structure (SMILES),Potency,"activity, negative = inhibition"
CCCC(=O)N(c1ccc2oc(=O)sc2c1)S(=O)(=O)c1ccccc1,"inconclusive [inhibitor, full curve, poor fit]",–
COc1ccc(NC(=O)Nc2ccc(N(C)C)cc2)cc1,–,inactive: 10.4%
COc1ccc(CC(=O)Nc2ccc3nc(C)sc3c2)cc1OC,–,inactive: 4.9%
COc1cc2nc(SCc3ccc(C(F)(F)F)cc3)n(Cc3cccs3)c(=N)c2cc1OC,–,inactive: -11.9%
O=C(CSc1nnc(-c2cccc(Cl)c2)o1)Nc1ccc2c(c1)OCCO2,"inconclusive [inhibitor, single point]",–
CC1CCC(C(C)C)C(OC(=O)COC(=O)c2cc(O)ccc2N)C1 (stereo not drawn),"inconclusive [activator, partial curve]",–
O=[N+]([O-])c1ccc(N2CCCCCC2)c(S(=O)(=O)N2CCCCC2)c1,–,inactive: 3.76%
CCOC(=O)c1ccc2[nH]c3ccccc3c2c1,"inconclusive [inhibitor, single point]",–
Cc1ccc(-c2nnc(CSc3nncn3N)o2)cc1,–,inactive: 0.728%
c1ccc(CNc2ncnc3sc4c(c23)CCC4)nc1,–,inactive: -1.44%
O=C(Nc1ccccc1)Nc1ccc(S(=O)(=O)N2CCCCC2)cc1,active: 31.6 µM,–
CCc1ccc(OC(=O)c2sc3ncn(Cc4cccc(F)c4)c(=O)c3c2C)cc1,"inconclusive [inhibitor, partial curve, poor fit]",–
COc1ccc(OC)c(NC(=O)c2cnc3n(c2=O)CCS3)c1,"inconclusive [activator, single point]",–
CC1CCN(C(=O)c2[nH]cnc2C(=O)N[C@@H](CCCCNC(=O)OC(C)(C)C)C(=O)OC(C)(C)C)CC1,–,inactive: -1.44%
COc1cccc(N=Cc2nc(-c3ccccc3)oc2OC(C)=O)c1,"inconclusive [inhibitor, partial curve]",–
CC(C)c1cccc(C(C)C)c1NC(=O)COC(=O)c1ccc(OCC(=O)Nc2cccc(C(F)(F)F)c2)cc1,"inconclusive [inhibitor, partial curve]",–
O=C(Nc1ccc(F)cc1)c1ccc(CSc2ccc(Cl)cc2)o1,"inconclusive [inhibitor, partial curve]",–
S=C(NCc1cccnc1)Nc1cc(Cl)cc(Cl)c1,"inconclusive [inhibitor, partial curve]",–
CN(C)c1ccc(NC(=O)C2(c3cccs3)CCOCC2)cc1,–,inactive: 7.47%
CC(=O)Nc1ccc(S(=O)(=O)N2CCC(c3nc4ccc(C)cc4[nH]3)CC2)cc1,"inconclusive [inhibitor, single point]",–
CN(C)S(=O)(=O)c1ccc(NC(=O)/C=C/c2ccccc2Cl)cc1,"inconclusive [inhibitor, partial curve]",–
N#C/C(=C\c1ccc([N+](=O)[O-])o1)C(=O)Nc1ccc(F)cc1,"inconclusive [inhibitor, partial curve]",–

Structure (SMILES),Potency,"activity, negative = inhibition"
Cn1c(=O)c2c(nc(NCc3ccccc3)n2Cc2ccc(Cl)c(Cl)c2)n(C)c1=O,"inconclusive [activator, partial curve, poor fit]",–
Cc1cc(C)c(C#N)c(Sc2ccccc2N)n1,–,inactive: -6.33%
COc1cccc(NC(=O)c2oc3ccc(S(=O)(=O)N4CCC5(CC4)OCCO5)cc3c2C)c1,–,inactive: -9.65%
COc1ccc(Cn2nnnc2C(c2ccccc2)N2CCN(C3CCCC3)CC2)cc1 (stereo not drawn),–,inactive: 4.25%
COc1cccc(-n2c(SCc3cc(=O)oc4cc(O)c(O)cc34)nc3ccccc3c2=O)c1,"inconclusive [activator, full curve, poor fit]",–
CCCCN(C(=O)CSc1nnc(-c2ccccc2)n1C)c1c(N)n(Cc2ccccc2)c(=O)[nH]c1=O,"inconclusive [inhibitor, single point]",–
CC[C@]1(O)C[C@@H]2CN(CCc3c([nH]c4ccccc34)[C@@](C(=O)OC)(c3cc4c(cc3OC)N(C)C3[C@]45CCN4CC=C[C@](CC)(C45)[C@@H](OC(C)=O)[C@]3(O)C(=O)OC)C2)C1 (stereo partly drawn),"inconclusive [inhibitor, partial curve]",–
Cc1ccc(C(=O)NCCSc2ccc(Cl)cc2)cc1S(=O)(=O)Nc1ccccc1,"inconclusive [inhibitor, partial curve]",–
Cc1ccc(NC(=O)c2cc(N3C(=O)C4CCCCC4C3=O)ccc2N2CCOCC2)cc1 (stereo not drawn),–,inactive: 2.7%
CCOc1ccc(NC(C(=O)Nc2cccc(C(C)=O)c2)c2ccccc2)cc1 (stereo not drawn),"inconclusive [activator, partial curve]",–
Cc1ccccc1NC(=O)CSc1nc2ccc(NC(=O)c3ccco3)cc2s1,"inconclusive [inhibitor, partial curve]",–
C=CCN1C(=O)/C(=c2\sc3nc(=O)c(Cc4ccccc4)nn3c2=O)c2ccccc21,"inconclusive [inhibitor, partial curve]",–
O=C(CSc1nc(-c2cccs2)cc(C(F)(F)F)n1)Nc1ccccc1Cl,"inconclusive [inhibitor, partial curve, poor fit]",–
COC(=O)c1c(SC)nc2ccccc2c1OCc1cc(C)ccc1C,"inconclusive [inhibitor, partial curve]",–
C/C=C/C=C/C(=O)[C@@H]1[C@@H]([C@]2(C)OC(=O)C(C)=C2O)[C@H]2/C(=C(O)/C=C/C=C/C)C(=O)[C@]1(C)C(=O)C2(C)O (stereo partly drawn),"inconclusive [inhibitor, partial curve]",–
O=C(COC(=O)c1cccc([N+](=O)[O-])c1)c1ccc(OCc2ccccc2)cc1,–,inactive: 0.942%
CS(=O)(=O)Nc1ccc(C2=NN(C(=O)c3ccco3)C(c3cccc(F)c3)C2)cc1 (stereo not drawn),–,inactive: -2.3%
Cc1ccc(NN2C(=O)C=CC2=O)cc1,–,inactive: 1.45%
O=[N+]([O-])c1ccc(CN2CCCCCC2)s1,"inconclusive [inhibitor, single point]",–
Fc1ccc(Oc2nnnn2-c2ccccc2)cc1,"inconclusive [inhibitor, single point]",–
CC(C)C[C@@H](NC(=O)OCC1c2ccccc2-c2ccccc21)C(=O)O,–,inactive: 0.15%
